# Measurements as given in publication PMC4336329 (PLoS ONE, 2015).
# The whole screen tested about 310,000 compounds, of which about 2,200 (0.71%) showed an effect of 50% or more. The effect is printed as a negative number. The list shows a part of the results.
# Molecular target: human ether-à-go-go-related gene (hERG) potassium channel (human, UniProt Q12809)
# Test: primary screen, population patch clamp on CHO cells stably expressing hERG
# human ether-à-go-go-related gene (hERG) potassium channel, sequence (Q12809 whole entry, looked up): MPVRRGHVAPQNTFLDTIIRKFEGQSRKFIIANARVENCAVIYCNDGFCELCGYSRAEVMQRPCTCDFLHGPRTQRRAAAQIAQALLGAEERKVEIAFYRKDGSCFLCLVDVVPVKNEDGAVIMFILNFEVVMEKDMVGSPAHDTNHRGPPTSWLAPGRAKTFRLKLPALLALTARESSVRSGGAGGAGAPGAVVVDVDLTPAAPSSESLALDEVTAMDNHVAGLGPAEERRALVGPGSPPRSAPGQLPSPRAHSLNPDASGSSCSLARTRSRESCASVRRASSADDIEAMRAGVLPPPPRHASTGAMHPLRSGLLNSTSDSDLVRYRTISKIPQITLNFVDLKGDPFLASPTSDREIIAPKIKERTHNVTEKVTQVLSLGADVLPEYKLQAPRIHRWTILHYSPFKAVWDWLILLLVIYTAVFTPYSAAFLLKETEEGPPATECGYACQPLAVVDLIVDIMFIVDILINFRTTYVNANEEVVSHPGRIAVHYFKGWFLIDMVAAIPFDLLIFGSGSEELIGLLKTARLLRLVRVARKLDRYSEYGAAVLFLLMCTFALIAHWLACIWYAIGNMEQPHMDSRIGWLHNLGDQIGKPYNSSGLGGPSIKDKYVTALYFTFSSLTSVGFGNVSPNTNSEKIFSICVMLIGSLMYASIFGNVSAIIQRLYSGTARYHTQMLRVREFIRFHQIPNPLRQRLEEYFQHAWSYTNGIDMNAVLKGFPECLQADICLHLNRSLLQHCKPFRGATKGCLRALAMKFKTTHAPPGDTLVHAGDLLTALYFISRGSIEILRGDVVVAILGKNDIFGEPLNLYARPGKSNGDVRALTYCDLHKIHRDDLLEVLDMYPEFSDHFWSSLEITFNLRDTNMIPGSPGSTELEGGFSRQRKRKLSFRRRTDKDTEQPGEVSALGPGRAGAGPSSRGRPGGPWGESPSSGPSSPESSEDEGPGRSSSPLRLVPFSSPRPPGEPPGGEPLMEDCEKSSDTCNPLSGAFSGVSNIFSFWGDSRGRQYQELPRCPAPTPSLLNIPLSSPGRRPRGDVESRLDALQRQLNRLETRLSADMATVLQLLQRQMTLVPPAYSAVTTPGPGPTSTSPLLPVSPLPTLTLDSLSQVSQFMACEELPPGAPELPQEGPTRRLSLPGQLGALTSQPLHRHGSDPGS
row,SMILES,"hERG current change (%, negative = inhibition) at 1uM [%]"
1,O=C(O)/C=C/c1ccc(OCc2cccc(F)c2)cc1,18.4
2,Cc1ccc(-n2c(C)cc(C(=O)CSc3nnnn3C)c2C)cc1,1.85
3,Cc1ccc(CNS(=O)(=O)c2cc3c(cc2C)NC(=O)CO3)cc1,-9.05
4,CCCCN(C(=O)CCC(=O)Nc1cc(C)on1)C(C(=O)NC1CCCC1)c1ccccc1OCC (centres unmarked),1.81
5,CCN(C(=O)COc1cc(=O)n(C)c2ccccc12)c1cccc(Cl)c1,-2.55
6,N#Cc1ccc[n+](CC(=O)c2ccc(NC(=O)c3ccccc3)cc2)c1.[Br-],0.763
7,CCOc1ccc(Br)cc1/C=N/O,8.41
8,Cc1nc(-c2cc(C#N)c(Sc3ccc(Cl)cc3Cl)nc2C)cs1,9.11
9,CC(=O)c1c(OC(=O)c2cccc(Cl)c2)c2ccccc2n1C,10.2
10,Cc1ccc(C)c2[nH]c(=O)c(CN(Cc3cccs3)C(=S)NCc3ccco3)cc12,10.9
11,COc1ccc(C(=O)NCc2ccc(S(N)(=O)=O)cc2)cc1[N+](=O)[O-],13.9
12,COc1ccccc1-c1ccc(=O)n(CC(=O)NC(C)(C)C)n1,13.8
13,COc1ccc(C(=S)NCS(=O)(=O)c2ccc(C)cc2)cc1,7.73
14,COc1ccc(OC)c(NC(=O)Nc2cc(C(=O)O)ccc2C)c1,9.9
15,CCO[C@H]1OC(C(=O)NCc2nc3ccccc3[nH]2)=C[C@@H](C)[C@@H]1CCCO,10.7
16,O=C(CSCc1cnn(-c2ccccc2)c1-n1cccc1)NCc1cccnc1,0.0399
17,CS(=O)(=O)N(CC(=O)N1CCCCCC1)c1ccccc1,4.57
18,CCOC(=O)C1CCN(CCC(=O)Nc2ccc(C)c(C)c2)CC1,-7.31
19,CN(CC(=O)Nc1ccccc1Br)C(=O)CCSc1ccc(F)cc1,8.65

row,SMILES,"hERG current change (%, negative = inhibition) at 1uM [%]"
1,O=C(NCCNC(=O)c1cc(F)cc(F)c1)c1cc(F)cc(F)c1,9.74
2,COc1ccc(NCc2nnc(SCC(=O)c3ccc(C)cc3)o2)cc1,7.48
3,Cc1c(Cl)cccc1NC(=O)CCN1CCC(C(N)=O)CC1,10.7
4,CCOC(=O)[C@H]1[C@H]2COc3ccc(OC)cc3[C@@H]2N2C(=O)CN(Cc3ccc(OC)cc3)C(=O)[C@@]12C,8.8
5,O=C1N=C(N2CCOCC2)S/C1=C\c1ccccc1OS(=O)(=O)c1ccccc1,10.6
6,O=[N+]([O-])c1cccc(S(=O)(=O)NCC2CC3CCC2C3)c1 (centres unmarked),10.1
7,Cc1cccc(C)c1NC(=O)/C(C#N)=C/c1cccs1,4.78
8,CCCCn1c(O)c(C(CC)=NCCc2ccccc2)c(=O)[nH]c1=O,7.67
9,Oc1c(Cl)cc(CN2CCOCC2)c2cccnc12,8.2
10,Cn1c(NC(=O)/C=C/c2c(F)cccc2Cl)cc(=O)n(C)c1=O,15.8
11,CC(=O)c1cc2c(cc1NC(=O)c1ccc(Cl)cc1)OCCO2,18.8
12,COC(=O)CCC(=O)Nc1cc(Cl)cc(Cl)c1,7.59
13,Cc1ccc(C(CC(=O)N2CCOCC2)c2ccco2)cc1 (centres unmarked),10.6
14,CCN1C(=O)CSc2ccc(C(=O)OC)cc21,7.48
15,CC1CC(C)CN(C(=O)C(NS(=O)(=O)c2ccc(Br)s2)c2ccccc2)C1 (centres unmarked),9.39
16,Cc1ccc(C2c3sc(=O)[nH]c3SC3C(=O)NC(=O)C32)cc1 (centres unmarked),11.2
17,CCOC(=O)C1=C(COC(=O)C2CC(=O)N(c3ccc(C)cc3)C2)NC(=O)NC1C (centres unmarked),6.47
18,COc1ccc(CN=C(C)c2c(C(F)(F)F)[nH]n(-c3nc4ccccc4s3)c2=O)cc1,15
19,COc1cc(C(=O)OCCN2CCCCC2)ccc1O.Cl,8.41

row,SMILES,"hERG current change (%, negative = inhibition) at 1uM [%]"
1,COc1cc(NC(=O)c2cccc3c2C(=O)N(Cc2cccnc2)C3)cc(OC)c1OC,-22.7
2,COc1cccc(/C=C2/Sc3ccc(C(=O)NCCCN4CCCC4)cc3NC2=O)c1,-20.2
3,Cl.OC(CN1C2=NCCN2c2ccccc21)c1ccc2c(c1)OCO2 (centres unmarked),-27.7
4,COc1ccc(NC(=O)Nc2cnccn2)cc1OC,8.02
5,Cc1ccnc(NC(=O)CNC(=O)Cc2cccc3ccccc23)c1,12.1
6,O=C(Nc1ccnn1C1CCN(C2CCCC2)CC1)c1ccccc1Cl,6.27
7,O=[N+]([O-])c1cccc(S(=O)(=O)N2CCCCCC2)c1,4.41
8,Cc1cc2c(c(=O)n1Cc1cccnc1)C(c1cccs1)C(C#N)=C(N)O2 (centres unmarked),9.61
9,COc1ccc(OC)c(C2=Nn3c(nnc3-c3cc(C)[nH]n3)SC2)c1,-1.69
10,NS(=O)(=O)c1cccc(NC(=O)COC(=O)COc2ccc3ccccc3c2)c1,13.5
11,COc1ccc(CNC(=O)C2CCCN2C(=O)NC2CCCCC2)cc1 (centres unmarked),-8.68
12,COc1cccc(N2C(=O)C(CC(=O)Nc3ccc(F)cc3)N(C3CCCCC3)C2=O)c1 (centres unmarked),-5.88
13,Cc1ccc(CNC(=O)COC(=O)CSc2ccc(Br)cc2C)cc1,2.26
14,OCC[C@@H]1C[C@@H](O)[C@H](O)[C@@]2(OCCc3ccccc32)O1,17
15,CCCc1cc(=O)[nH]c(SCC(=O)N(CCOC)c2c(N)n(Cc3ccccc3)c(=O)[nH]c2=O)n1,-0.997
16,CCOC(=O)c1cnc(SCc2ccc(C)cc2)nc1N,7.87
17,Cc1ccc(C(=O)Nc2cc(Cl)ccc2Oc2ccccc2)cc1[N+](=O)[O-],9.15
18,Cc1ccc(S(=O)(=O)N(C)C)cc1[N+](=O)[O-],6.69
